# Read counts are not given, so values of variants with three or more changes are uncertain.
# B1: CPEB3 Ribozyme (parent)
# chain: UAACAGGGGGCCACAGCAGAAGCGUUCACGUCGCAGCCCCUGUCAGAUUCUGGUGAAUCUGCGAAUUCUGCUGUAUAUCUC
# Variants of: B1
# Assay: self-cleavage, relative activity (ratio to wild type); higher = more cleavage; in vitro, sequencing
# Outline: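 Relative activity compares each variant's cleaved/total read fraction with that of the unmutated ribozyme. To get these fractions, barcoded CPEB3 ribozyme libraries from rounds of error-prone PCR were transcribed with T7 RNA polymerase for 5 hours at 37°C and then given 15 min of DNase I treatment before EDTA was added. The RNAs were reverse transcribed with template switching and sequenced on Illumina, and DNA sequencing linked barcodes to variants. A minimum of 5 reads applied, and three batches were averaged.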
row,Variant,self-cleavage
1,UUACAGGGGGCCACAGCAGAAGCGCCCACGUCGCAGCCCCAGUCAGAUUCCGGUGAAUCUGCGCAUUCUGCUGUAUAUCUC [A2U U25C U26C U41A U51C A64C],0.22
2,UUACAGGGGGCCACAGCAGAAGCGCCCACGUCGCAGCCCCCGUCAGACUCUGGUGAAUCUGAGAAUUCUGCUGUAUAUCAC [A2U U25C U26C U41C U48C C62A U80A],0.44
3,UUACAGGGGGCCACAGCAGAAGCGCUCACGUCGCAGCCCCCGUCAGAUUCAGGUGAAUCUGCGAAUUCUGCUGUAUAUCUC [A2U U25C U41C U51A],0.37
4,UUACAGGGGGCCACAGCAGAAGCGUACACGUCGCAGCCCCUGUCUGAUUCUGGUGAAUCCGCGAAUUCUGCUGUAUAUCUC [A2U U26A A45U U60C],0.27
5,UUACAGGGGGCCACAGCAGAAGCGUACACGUCGCAGCCCCUGUCAGAUACUGGUGAAUCUACGGAUUCUGCCGUAUAUCCC [A2U U26A U49A G61A A64G U72C U80C],0.14
6,UUACAGGGGGCCACAGCAGAAGCGUACACGUCGCAGCCCCUGUCAGAUUCUGGCGAAUCUGCGAAUUCUGCUGUGUAUCUC [A2U U26A U54C A75G],0.7
7,UUACAGGGGGCCACAGCAGAAGCGUCCACGUCGCAGCCCCUGUCGGAUUCUGGUGAACCUGCGAAUUCUGCUGUAUAUCUC [A2U U26C A45G U58C],0.04
8,UUACAGGGGGCCACAGCAGAAGCGUCCACGUCGCAGCCCCUGUCAGGUUCUGGUGAAUCUGCGAAUUCUGCUGUAUAUCUC [A2U U26C A47G],0.71
9,UUACAGGGGGCCACAGCAGAAGCGUCCACGUCGCAACUCCUGUCAGAUUCUGGUGAAUCUGCGAAUUCUGCCGUAUAACUC [A2U U26C G36A C38U U72C U78A],0.06
10,UUACAGGGGGCCACAGCAGAAGCGUCCACGUCGCAGCCCCUGCCAGAUUCUGGUGAAUCUGCGAACUCUGCUGUAUAUCUC [A2U U26C U43C U66C],0.38
11,UUACAGGGGGCCACAGCAGAAGCGUUCACGUCGCAGCCCCCGUCAGAUUCUGGUGAAUCUGCGAAUUCUGCUGUAUUUCUC [A2U U41C A77U],1.04
12,UUACAGGGGGCCACAGCAGAAGCGUUCACGUCGCAGCCCCCGUCAGAUCCUGGUCAGUCUGCGAAUUCUGCUGUAUAUCUC [A2U U41C U49C G55C A57G],0.09
13,UUACAGGGGGCCACAGCAGAAGCGUUCACGUCGCAGCCCCUGUCAGAUUCUGGUGAACCUGCGAAUUCUGCUGUAUAUCAC [A2U U58C U80A],0.75
14,UUACAGGGGGCCACAGCAGAAGCGUUCACGUCGCAGCCCCUGUCAGAUUCUGGUGAAUCCGCGAAUUCAGCUGUAUAUCUC [A2U U60C U69A],0.25
15,UUACAGGGGGCCACAGCAGAAGCGUUCACGUCGCAGCCCCUGUCAGAUUCUGGUGAAUCUGCGAAUACAGCUGUAUAUCUC [A2U U67A U69A],0.25
16,UACCCGGAGGCCACAGCAGAAGCGUUCACGUCGCAGCCCCUGUCAGGUUCCGGUGAAUCUGCGUAUUCUGCUGUAUAUCCC [A3C A5C G8A A47G U51C A64U U80C],0.1
17,UACCGGGGGGCCACAGCUGAAGCGUUCACGUCGCAGCCCCUGUCAGAUUCUGGUGAAUCUGCGGAUUCCGCUGUAUAUCUC [A3C A5G A18U A64G U69C],0.11

row,Variant,self-cleavage
1,UACCUGGGGGCCACAGCGGAAGCGUUCACGUCGCGGCCCCUGUCAGAUUCUGGUGAAUCAGCGAAUUCUGCUGUAUAUCUC [A3C A5U A18G A35G U60A],0.97
2,UACCUGGGGGUCACAGCGGAAGCGUUCACGUCGCAGCCCCUGUCAGAUUCUGGUGAAUCUGCGAAUUCUGCUGUAUAUCUC [A3C A5U C11U A18G],0.64
3,UACCAGGGGGCCGCAGCAGCAGCGUUCACGUCACAACCCCUGCCAGAUUCUGGUGAAUCUGCGAAUUCUGCUGUAUAUCUC [A3C A13G A20C G33A G36A U43C],0.11
4,UACCAGGGGGCCGCAGCAGGAGCGUUCACGUCGCAGCCCCAGCCAGAUUCUGGUGAAUCUGCGUAUUCCGCUGUAUAUCUC [A3C A13G A20G U41A U43C A64U U69C],0.08
5,UACCAGGGGGCCUCAGCAGAAGCGUACACGUCGCAGCCCCCGUCAGAUUCUGGUGAACCUGCGAAUUCUGCUGUAUAUUUA [A3C A13U U26A U41C U58C C79U C81A],0.94
6,UACCAGGGGGCCACGGCGGAAGCGCUCACGUCGCAGCCCCUGUCAGAUUCUGGUGAAUCUGCGAAUUCUGCUGUAUAUCUC [A3C A15G A18G U25C],0.58
7,UACCAGGGGGCCACGGCAGAAGCGUCCUCGUCGCAGCCCCUGUCAGAUUCUGGUGAAUCUGCGAAUUCUGCUGUAUAUCUC [A3C A15G U26C A28U],0.57
8,UACCAGGGGGCCACUGCAGAAGCGUUCUCGUCGCAGCCCCUGUCAGAUUCUGGUGAAUCUGCGAACUCUGCUGUAUAUCUC [A3C A15U A28U U66C],0.2
9,UACCAGGGGGCCACAGCUGAAGCGUUCACGUCGCAGCCCCUGUCAGAUUCUGGUGAAUCUGCGAAUUCUGCUGUAUACCUC [A3C A18U U78C],0.47
10,UACCAGGGGGCCACAGCAGGAGCGUUCACGUCGCAGCCUCUGUCAGAUUCUGGUGAAUCUGCGAAUUCUGCUGUAUAUCUC [A3C A20G C39U],0.41
11,UACCAGGGGGCCACAGCAGACGCGUCCACGUCGCAGCCCCUGUCAGAUACUGGUGAAUCUGCGAAUUCUGCUGUAUAUCUC [A3C A21C U26C U49A],0.53
12,UACCAGGGGGCCACAGCAGAGGCGUUCACGUCGCAGCCCCUGUCAGUUUCUGGUGAAUCUGCGAAUUCUGCUGUAUAUCUC [A3C A21G A47U],0.75
13,UACCAGGGGGCCACAGCAGAGGCGUUCACGUCGCAGCCCUUGUCAGAUUCUGGUGAAUCUGCGGAUUCUGCUGUAUAACUC [A3C A21G C40U A64G U78A],0.22
14,UACCAGGGGGCCACAGCAGAAGCGUUCGCGUCGCCGCCCCUGUCAGAUUCUGGUGAAUCUGCGAAUUCUGCUGUAUAUCUC [A3C A28G A35C],0.37
15,UACCAGGGGGCCACAGCAGAAGCGUUCGCGUCGCAGCCCCUGUCAGAUUCUGGUGAAUCAGCGAAUUCUGCUGUAUAUCUC [A3C A28G U60A],0.28
16,UACCAGGGGGCCACAGCAGAAGCGUUCGCGUCGCAGCCCCUGUCAGAUUCUGGUGAAUCUGCGAAUUCUGCUGUAUACCUC [A3C A28G U78C],0.95
17,UACCAGGGGGCCACAGCAGAAGCGUUCACGUCGCUGCCCCUGUCAGAUUCUGGUGAAUCUGCGAACUCUGCUGUAUAUCUC [A3C A35U U66C],0.46

# From the RNAGym collection of RNA variant scans (doi:10.1093/nar/gkz1192)
